Measurements from the supplement of paper PMC9151546.
Counter-ions that a name gives are not always drawn. Single values are uncertain, as repeats are few or missing.

What was measured:
CHO-K1 [1] = test: relative survival (nuclei to bead ratio vs DMSO control) (% of vehicle control); higher = more surviving cells
Experimental: (§1)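 Flow-cytometric in vitro micronucleus assay (Litron MicroFlow) in CHO-K1 cells in 96-well plates, 19 concentrations (4.5-200 µM, n=1 per concentration). Without S9, cells were exposed for 24 h and sampled at 48 h. With Aroclor 1254-induced rat liver S9, cells were exposed for 3-4 h and sampled at 27-28 h. Read-outs are %MN and %hypodiploid nuclei relative to nucleated events, and relative survival as the nuclei-to-bead ratio versus the 1% DMSO vehicle control (x100).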

CHO-K1 [2] = test: micronucleus frequency (% of nucleated events); higher = more micronuclei (genotoxic)
CHO-K1 [3] = test: hypodiploid nuclei frequency (% of nucleated events); higher = more hypodiploid events (aneugenic)
Experimental: as §1
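For hypodiploid nuclei frequency (% of nucleated events) in this document: hypodiploid nuclei gated on a flow cytometer with 488 nm excitation after SYTOX Green staining, cultures at 37 °C, positive controls vinblastine without S9 and cyclophosphamide with S9.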
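For micronucleus frequency (% of nucleated events) in this document: cells lysed with nuclei stained by SYTOX Green, then micronucleus-gated events counted against nucleated events by flow cytometry with 488 nm excitation.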
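For relative survival (nuclei to bead ratio vs DMSO control) in this document: Lysed-cell nuclei stained with SYTOX Green and counted against counting beads by flow cytometry at 488 nm excitation, with vinblastine (no S9) and cyclophosphamide (plus S9) as positive controls.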

COc1cc(-c2ccc(N)c(OC)c2)ccc1N [3,3'-Dimethoxybenzidine dihydrochloride]
Details	hypodiploid nuclei frequency, CHO-K1 [3] [%]	micronucleus frequency, CHO-K1 [2] [%]	relative survival, CHO-K1 [1]
concentration: 4.5 (µM), S9 metabolic activation: with S9, exposure time: 3-4 hours	0.2	1.22	58.1
concentration: 4.5 (µM), S9 metabolic activation: without S9, exposure time: 24 hours	0.86	1.38	106
concentration: 5.63 (µM), S9 metabolic activation: with S9, exposure time: 3-4 hours	0.32	0.96	52.1
concentration: 5.63 (µM), S9 metabolic activation: without S9, exposure time: 24 hours	1.22	1.42	124
concentration: 7.04 (µM), S9 metabolic activation: with S9, exposure time: 3-4 hours	0.16	0.9	54.1
concentration: 7.04 (µM), S9 metabolic activation: without S9, exposure time: 24 hours	1.06	1.58	121
concentration: 8.8 (µM), S9 metabolic activation: with S9, exposure time: 3-4 hours	0.28	1.22	55
concentration: 8.8 (µM), S9 metabolic activation: without S9, exposure time: 24 hours	1.32	1.84	140
concentration: 11 (µM), S9 metabolic activation: with S9, exposure time: 3-4 hours	0.22	0.98	52
concentration: 11 (µM), S9 metabolic activation: without S9, exposure time: 24 hours	2.42	1.8	102
concentration: 13.7 (µM), S9 metabolic activation: with S9, exposure time: 3-4 hours	0.18	1.44	49.1
concentration: 13.7 (µM), S9 metabolic activation: without S9, exposure time: 24 hours	2.22	1.58	96
concentration: 17.2 (µM), S9 metabolic activation: with S9, exposure time: 3-4 hours	0.12	1.2	64.5
concentration: 17.2 (µM), S9 metabolic activation: without S9, exposure time: 24 hours	22.8	2.08	62.9
concentration: 21.5 (µM), S9 metabolic activation: with S9, exposure time: 3-4 hours	0.2	1.06	60.5
concentration: 21.5 (µM), S9 metabolic activation: without S9, exposure time: 24 hours	8.14	2.12	62.7
concentration: 26.8 (µM), S9 metabolic activation: with S9, exposure time: 3-4 hours	0.24	1.24	75.4
concentration: 26.8 (µM), S9 metabolic activation: without S9, exposure time: 24 hours	3.84	1.46	70.2
concentration: 33.6 (µM), S9 metabolic activation: with S9, exposure time: 3-4 hours	0.1	1.24	86.5
concentration: 33.6 (µM), S9 metabolic activation: without S9, exposure time: 24 hours	7.54	2.04	50.8
concentration: 41.9 (µM), S9 metabolic activation: with S9, exposure time: 3-4 hours	0.28	1.42	86.5
concentration: 41.9 (µM), S9 metabolic activation: without S9, exposure time: 24 hours	23.5	2.64	41.1
concentration: 52.4 (µM), S9 metabolic activation: with S9, exposure time: 3-4 hours	0.12	1.3	69.1
concentration: 52.4 (µM), S9 metabolic activation: without S9, exposure time: 24 hours	–	–	16.9
concentration: 65.5 (µM), S9 metabolic activation: with S9, exposure time: 3-4 hours	0.1	1.36	56.5
concentration: 65.5 (µM), S9 metabolic activation: without S9, exposure time: 24 hours	–	–	10.1
concentration: 81.9 (µM), S9 metabolic activation: with S9, exposure time: 3-4 hours	0.4	1	76.3
concentration: 81.9 (µM), S9 metabolic activation: without S9, exposure time: 24 hours	–	–	12.4
concentration: 102 (µM), S9 metabolic activation: with S9, exposure time: 3-4 hours	0.32	1.38	57.3
concentration: 102 (µM), S9 metabolic activation: without S9, exposure time: 24 hours	–	–	9.83
concentration: 128 (µM), S9 metabolic activation: with S9, exposure time: 3-4 hours	0.44	1.32	66.3
concentration: 128 (µM), S9 metabolic activation: without S9, exposure time: 24 hours	–	–	6.16
concentration: 160 (µM), S9 metabolic activation: with S9, exposure time: 3-4 hours	0.22	1.18	60.7
concentration: 160 (µM), S9 metabolic activation: without S9, exposure time: 24 hours	–	–	4.99
concentration: 200 (µM), S9 metabolic activation: with S9, exposure time: 3-4 hours	0.34	1.02	58.1
concentration: 200 (µM), S9 metabolic activation: without S9, exposure time: 24 hours	–	–	2.2

COc1cc(-c2ccc(N)c(OC)c2)ccc1N [3,3'-Dimethoxybenzidine]
Details	hypodiploid nuclei frequency, CHO-K1 [3] [%]	micronucleus frequency, CHO-K1 [2] [%]	relative survival, CHO-K1 [1]
concentration: 4.5 (µM), S9 metabolic activation: with S9, exposure time: 3-4 hours	0.19	0.69	73.9
concentration: 4.5 (µM), S9 metabolic activation: without S9, exposure time: 24 hours	0.44	1.34	91.7
concentration: 5.63 (µM), S9 metabolic activation: with S9, exposure time: 3-4 hours	0.18	0.76	75.7
concentration: 5.63 (µM), S9 metabolic activation: without S9, exposure time: 24 hours	0.56	1.66	107
concentration: 7.04 (µM), S9 metabolic activation: with S9, exposure time: 3-4 hours	0.14	1.04	91.1
concentration: 7.04 (µM), S9 metabolic activation: without S9, exposure time: 24 hours	0.5	1.52	85.4
concentration: 8.8 (µM), S9 metabolic activation: with S9, exposure time: 3-4 hours	0.2	1.08	97.9
concentration: 8.8 (µM), S9 metabolic activation: without S9, exposure time: 24 hours	0.46	1.64	96.5
concentration: 11 (µM), S9 metabolic activation: with S9, exposure time: 3-4 hours	0.14	0.96	105
concentration: 11 (µM), S9 metabolic activation: without S9, exposure time: 24 hours	0.58	2	97.2
concentration: 13.7 (µM), S9 metabolic activation: with S9, exposure time: 3-4 hours	0.16	1.26	84.4
concentration: 13.7 (µM), S9 metabolic activation: without S9, exposure time: 24 hours	0.46	1.68	95.4
concentration: 17.2 (µM), S9 metabolic activation: with S9, exposure time: 3-4 hours	0.24	0.76	94.8
concentration: 17.2 (µM), S9 metabolic activation: without S9, exposure time: 24 hours	0.5	2	97.2
concentration: 21.5 (µM), S9 metabolic activation: with S9, exposure time: 3-4 hours	0.12	0.9	105
concentration: 21.5 (µM), S9 metabolic activation: without S9, exposure time: 24 hours	0.74	1.9	87.1
concentration: 26.8 (µM), S9 metabolic activation: with S9, exposure time: 3-4 hours	0.28	0.72	84.4
concentration: 26.8 (µM), S9 metabolic activation: without S9, exposure time: 24 hours	0.46	0.98	59.5
concentration: 33.6 (µM), S9 metabolic activation: with S9, exposure time: 3-4 hours	0.16	0.5	41.8
concentration: 33.6 (µM), S9 metabolic activation: without S9, exposure time: 24 hours	0.44	0.98	60.6
concentration: 41.9 (µM), S9 metabolic activation: with S9, exposure time: 3-4 hours	0.28	0.77	41.5
concentration: 41.9 (µM), S9 metabolic activation: without S9, exposure time: 24 hours	0.48	1.3	56.9
concentration: 52.4 (µM), S9 metabolic activation: with S9, exposure time: 3-4 hours	0.32	0.79	43.5
concentration: 52.4 (µM), S9 metabolic activation: without S9, exposure time: 24 hours	0.7	1	47.6
concentration: 65.5 (µM), S9 metabolic activation: with S9, exposure time: 3-4 hours	0.16	0.7	62.4
concentration: 65.5 (µM), S9 metabolic activation: without S9, exposure time: 24 hours	0.62	1.7	53.3
concentration: 81.9 (µM), S9 metabolic activation: with S9, exposure time: 3-4 hours	0.2	1.04	47
concentration: 81.9 (µM), S9 metabolic activation: without S9, exposure time: 24 hours	0.78	1.46	52.2
concentration: 102 (µM), S9 metabolic activation: with S9, exposure time: 3-4 hours	0.2	1.12	62.5
concentration: 102 (µM), S9 metabolic activation: without S9, exposure time: 24 hours	0.72	1.24	43.2
concentration: 128 (µM), S9 metabolic activation: with S9, exposure time: 3-4 hours	0.2	1.04	52.9
concentration: 128 (µM), S9 metabolic activation: without S9, exposure time: 24 hours	0.7	1.32	54.5
concentration: 160 (µM), S9 metabolic activation: with S9, exposure time: 3-4 hours	0.26	1.04	64.3
concentration: 160 (µM), S9 metabolic activation: without S9, exposure time: 24 hours	0.57	1.64	40.8
concentration: 200 (µM), S9 metabolic activation: with S9, exposure time: 3-4 hours	0.26	1.17	61.3
concentration: 200 (µM), S9 metabolic activation: without S9, exposure time: 24 hours	–	–	37.8

O=[N+]([O-])c1ccc(Cl)c(Cl)c1 [3,4-Dichloronitrobenzene]
Details	hypodiploid nuclei frequency, CHO-K1 [3] [%]	micronucleus frequency, CHO-K1 [2] [%]	relative survival, CHO-K1 [1]
concentration: 4.5 (µM), S9 metabolic activation: with S9, exposure time: 3-4 hours	0.24	1.48	100
concentration: 4.5 (µM), S9 metabolic activation: without S9, exposure time: 24 hours	0.4	1.46	109
concentration: 5.63 (µM), S9 metabolic activation: with S9, exposure time: 3-4 hours	0.14	1.16	81.1
concentration: 5.63 (µM), S9 metabolic activation: without S9, exposure time: 24 hours	0.62	1.36	119
concentration: 7.04 (µM), S9 metabolic activation: with S9, exposure time: 3-4 hours	0.26	1.26	75.2
concentration: 7.04 (µM), S9 metabolic activation: without S9, exposure time: 24 hours	0.84	1.32	93.9
concentration: 8.8 (µM), S9 metabolic activation: with S9, exposure time: 3-4 hours	0.24	1.22	74.9
concentration: 8.8 (µM), S9 metabolic activation: without S9, exposure time: 24 hours	2.02	1.32	113
concentration: 11 (µM), S9 metabolic activation: with S9, exposure time: 3-4 hours	0.24	1.4	78
concentration: 11 (µM), S9 metabolic activation: without S9, exposure time: 24 hours	0.8	1.22	89.6
concentration: 13.7 (µM), S9 metabolic activation: with S9, exposure time: 3-4 hours	0.34	2.1	88.8
concentration: 13.7 (µM), S9 metabolic activation: without S9, exposure time: 24 hours	2.36	2.1	106
concentration: 17.2 (µM), S9 metabolic activation: with S9, exposure time: 3-4 hours	0.36	1.68	80.8
concentration: 17.2 (µM), S9 metabolic activation: without S9, exposure time: 24 hours	1.26	1.64	83.8
concentration: 21.5 (µM), S9 metabolic activation: with S9, exposure time: 3-4 hours	0.16	1.52	92.1
concentration: 21.5 (µM), S9 metabolic activation: without S9, exposure time: 24 hours	1.44	1.66	102
concentration: 26.8 (µM), S9 metabolic activation: with S9, exposure time: 3-4 hours	0.16	0.94	118
concentration: 26.8 (µM), S9 metabolic activation: without S9, exposure time: 24 hours	0.58	1	142
concentration: 33.6 (µM), S9 metabolic activation: with S9, exposure time: 3-4 hours	0.14	0.74	104
concentration: 33.6 (µM), S9 metabolic activation: without S9, exposure time: 24 hours	0.66	1.26	118
concentration: 41.9 (µM), S9 metabolic activation: with S9, exposure time: 3-4 hours	0.16	0.9	90.6
concentration: 41.9 (µM), S9 metabolic activation: without S9, exposure time: 24 hours	0.66	1.66	111
concentration: 52.4 (µM), S9 metabolic activation: with S9, exposure time: 3-4 hours	0.24	1.04	93.6
concentration: 52.4 (µM), S9 metabolic activation: without S9, exposure time: 24 hours	1.06	1.9	113
concentration: 65.5 (µM), S9 metabolic activation: with S9, exposure time: 3-4 hours	0.22	1.2	90.6
concentration: 65.5 (µM), S9 metabolic activation: without S9, exposure time: 24 hours	0.82	1.34	111
concentration: 81.9 (µM), S9 metabolic activation: with S9, exposure time: 3-4 hours	0.14	1.02	80
concentration: 81.9 (µM), S9 metabolic activation: without S9, exposure time: 24 hours	1.16	1.48	102
concentration: 102 (µM), S9 metabolic activation: with S9, exposure time: 3-4 hours	0.16	1.16	103
concentration: 102 (µM), S9 metabolic activation: without S9, exposure time: 24 hours	0.92	1.68	104
concentration: 128 (µM), S9 metabolic activation: with S9, exposure time: 3-4 hours	0.1	1.02	94
concentration: 128 (µM), S9 metabolic activation: without S9, exposure time: 24 hours	0.74	1.96	114
concentration: 160 (µM), S9 metabolic activation: with S9, exposure time: 3-4 hours	0.12	0.94	99.9
concentration: 160 (µM), S9 metabolic activation: without S9, exposure time: 24 hours	1.3	1.96	91.4
concentration: 200 (µM), S9 metabolic activation: with S9, exposure time: 3-4 hours	0.18	1.4	106
concentration: 200 (µM), S9 metabolic activation: without S9, exposure time: 24 hours	2.94	2.36	94.6
